From patent US20240252650A1, “LIPID COMPOUNDS AND LIPID NANOPARTICLE COMPOSITIONS” (SUZHOU ABOGEN BIOSCIENCES CO., LTD., priority 2021, published 2024)
For part of these data: At least one read-out could not be matched to a standard name with certainty. Some entries repeat one wording, which the source may state once for all of them. For part of these data: At least one structure is not confirmed: it was looked up by name or label, or the drawing left a doubt.

Tests used:
[1] = Lipid nanoparticle size and polydispersity by dynamic light scattering (Malvern Zetasizer Nano ZS); assay type: physicochemical; details: LNP encapsulating hEPO mRNA; table of Example 16
Procedure: (§1) Briefly, a cationic lipid provided herein, DSPC, cholesterol, and PEG-lipid were solubilized in ethanol at a molar ratio of 50:10:38.5:1.5, and mRNA were diluted in 10 to 50 mM citrate buffer, pH=4. The LNPs were prepared at a total lipid to mRNA weight ratio of approximately 10:1 to 30:1 by mixing the ethanolic lipid solution with the aqueous mRNA solution at a volume ratio of 1:3 using a microfluidic apparatus, total flow rate ranging from 9-30 mL/min. Ethanol were thereby removed and replaced by DPBS using dialysis. Finally, the lipid nanoparticles were filtered through a 0.2 μm sterile filter.
(§2) Lipid nanoparticle size were determined by dynamic light scattering using a Malvern Zetasizer Nano ZS (Malvern UK) using a 173° backscatter detection mode. The encapsulation efficiency of lipid nanoparticles were determined using a Quant-it Ribogreen RNA quantification assay kit (Thermo Fisher Scientific, UK) according to the manufacturer's instructions.

[2] = Encapsulation efficiency of lipid nanoparticles (Quant-it Ribogreen RNA quantification assay); assay type: physicochemical; details: LNP encapsulating hEPO mRNA; table of Example 16
Procedure: as §1, §2

[3] = tested on: female ICR mice; experiment: Animal study: LNPs encapsulating hEPO mRNA, tail vein injection, serum hEPO ELISA, expression over MC3; assay type: in vivo; details: hEPO mRNA LNP, 0.5 mg/kg tail vein injection, serum ELISA (e.g. 6 hours), relative to DLin-MC3-DMA LNP at same dose

**Q.** Which results are given for `CCCCCCCCCC(=O)OCC(COC(=O)CCCCCCN(CCO)C1CCC1)COC(=O)CCCC(COC(=O)CCCCCCC)COC(=O)CCCCCCC` (stereo not drawn) [Compound 79]?
**A.** polydispersity [1]: 0.113; size (nm) [1]: 112.48 nm; Encapsulation Efficiency [2]: 92.30%; Expression over MC3 [3]: C (≥0.1 and <1)

**Q.** What does the source list for `CCCCCCCCCC(=O)OCC(COC(=O)CCCCCCCN(CCO)C1CCC1)COC(=O)CCCC(COC(=O)CCCCCCC)COC(=O)CCCCCCC` (stereo not drawn) [Compound 80]?
**A.** polydispersity [1]: 0.098; size (nm) [1]: 133.9 nm; Encapsulation Efficiency [2]: 90.34%; Expression over MC3 [3]: B (≥1 and <2)

**Q.** For `CCCCCCCCCCCCCCCCCC(=O)OCC(COC(=O)CCCCN(CCC)CCO)COC(=O)CCCC(COC(=O)CCCCCCC)COC(=O)CCCCCCC` (stereo not drawn) [Compound 83], which polydispersity [1] is on record?
**A.** 0.159

**Q.** And the “size (nm)” value [1]?
**A.** 81.2 nm

**Q.** What about the “Encapsulation Efficiency” value [2] of the same compound?
**A.** 89.13%

**Q.** What about the “Expression over MC3” value [3] of the same compound?
**A.** C (≥0.1 and <1)

**Q.** For `C=CCN(CCO)CCCOC(=O)OCC(COC(=O)CCCCCCC/C=C\C/C=C\CCCCC)COC(=O)CCCC(COC(=O)CCCCCCC)COC(=O)CCCCCCC` (stereo not drawn) [Compound 88], which polydispersity [1] is on record?
**A.** 0.034

**Q.** And the “size (nm)” value [1]?
**A.** 73.98 nm

**Q.** What about the “Encapsulation Efficiency” value [2] of the same compound?
**A.** 89.69%

**Q.** And the “Expression over MC3” value [3]?
**A.** C (≥0.1 and <1)

**Q.** For `C/C=C/CN(CCO)CCCOC(=O)OCC(COC(=O)CCCCCCC/C=C\C/C=C\CCCCC)COC(=O)CCCC(COC(=O)CCCCCCC)COC(=O)CCCCCCC` (stereo not drawn) [Compound 94], which polydispersity [1] is on record?
**A.** 0.024

**Q.** What about the “size (nm)” value [1] of the same compound?
**A.** 93.24 nm

**Q.** And the “Encapsulation Efficiency” value [2]?
**A.** 92.63%

**Q.** And the “Expression over MC3” value [3]?
**A.** C (≥0.1 and <1)

**Q.** For `CCCCCCCCCCCCCCCCCC(=O)OCC(COC(=O)CCCCN(CCO)CC(C)C)COC(=O)CCCC(COC(=O)CCCCCCC)COC(=O)CCCCCCC` (stereo not drawn) [Compound 97], which polydispersity [1] is on record?
**A.** 0.039

**Q.** And the “size (nm)” value [1]?
**A.** 93.89 nm

**Q.** And the “Encapsulation Efficiency” value [2]?
**A.** 91.43%

**Q.** And the “Expression over MC3” value [3]?
**A.** C (≥0.1 and <1)
